The full ranking holds about 33,000 sequences; the median of “E-score (-0.5 to 0.5)” is about -0.053, and the highest 2% start at about 0.37. The list shows a part of the results.
biological target: Hap1 (UniProt P0CE41); assay: PBM E-score (8-mer binding enrichment) (E-score (-0.5 to 0.5)); higher = stronger / more preferred TF binding; most listed sequences are background and not binding sites; conditions: protein concentration: 200 nM; construct: GST-DNA-binding domain
In short: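 Bound GST-tagged yeast transcription factors, applied at about 100-200 nM to double-stranded universal all-10-mer Agilent arrays, were detected with fluorescent anti-GST. Scans were normalised with masliner. A modified Wilcoxon-Mann-Whitney statistic, the E-score, was assigned to each ungapped eight-base word pooled with its reverse complement by the Universal PBM Analysis Suite.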

Chain of UniProt P0CE41 (P0CE41 whole entry, the tested form may be a part): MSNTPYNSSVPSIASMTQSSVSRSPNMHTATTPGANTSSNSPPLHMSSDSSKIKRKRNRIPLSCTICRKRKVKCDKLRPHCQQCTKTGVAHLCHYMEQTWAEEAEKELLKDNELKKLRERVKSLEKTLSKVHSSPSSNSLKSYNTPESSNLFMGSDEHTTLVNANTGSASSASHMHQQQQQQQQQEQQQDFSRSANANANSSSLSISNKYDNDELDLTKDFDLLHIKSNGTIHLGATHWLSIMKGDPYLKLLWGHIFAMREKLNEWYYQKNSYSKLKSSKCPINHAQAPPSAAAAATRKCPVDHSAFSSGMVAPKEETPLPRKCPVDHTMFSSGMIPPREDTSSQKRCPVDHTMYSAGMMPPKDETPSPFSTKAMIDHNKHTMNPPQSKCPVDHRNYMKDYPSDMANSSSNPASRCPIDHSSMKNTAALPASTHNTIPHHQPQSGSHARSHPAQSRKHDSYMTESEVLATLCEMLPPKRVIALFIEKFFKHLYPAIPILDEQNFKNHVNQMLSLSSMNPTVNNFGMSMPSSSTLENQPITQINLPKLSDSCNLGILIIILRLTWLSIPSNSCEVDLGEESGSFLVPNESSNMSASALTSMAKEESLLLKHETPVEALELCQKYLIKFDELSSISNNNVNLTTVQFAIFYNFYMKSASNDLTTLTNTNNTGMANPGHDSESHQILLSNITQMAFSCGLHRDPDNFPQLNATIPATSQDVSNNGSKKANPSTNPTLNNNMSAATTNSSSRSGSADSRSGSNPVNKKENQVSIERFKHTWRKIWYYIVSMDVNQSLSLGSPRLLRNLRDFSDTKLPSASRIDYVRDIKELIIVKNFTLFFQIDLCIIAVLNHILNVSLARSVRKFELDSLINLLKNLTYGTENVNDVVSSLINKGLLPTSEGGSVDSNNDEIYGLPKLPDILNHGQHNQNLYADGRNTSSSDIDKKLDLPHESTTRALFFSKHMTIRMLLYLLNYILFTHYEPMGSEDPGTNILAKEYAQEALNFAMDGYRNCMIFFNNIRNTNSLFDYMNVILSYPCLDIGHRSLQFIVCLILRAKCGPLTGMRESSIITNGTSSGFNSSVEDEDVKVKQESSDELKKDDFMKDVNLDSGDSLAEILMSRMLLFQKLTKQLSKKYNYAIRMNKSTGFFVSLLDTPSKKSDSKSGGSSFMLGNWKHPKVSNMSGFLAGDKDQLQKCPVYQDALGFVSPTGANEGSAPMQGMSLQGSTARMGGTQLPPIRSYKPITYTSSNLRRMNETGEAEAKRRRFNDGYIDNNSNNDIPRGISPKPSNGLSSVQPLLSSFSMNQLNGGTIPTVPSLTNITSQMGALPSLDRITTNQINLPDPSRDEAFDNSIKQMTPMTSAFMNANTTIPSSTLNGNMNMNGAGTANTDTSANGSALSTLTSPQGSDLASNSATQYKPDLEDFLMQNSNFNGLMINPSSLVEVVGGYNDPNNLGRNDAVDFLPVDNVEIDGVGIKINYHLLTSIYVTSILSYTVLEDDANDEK

Sequence | PBM E-score
GTTCACAA | -0.0642
CGGAAGGA | 0.23
ACTGATAC | -0.0124
ATTGACAC | -0.24
AAATCTGC | -0.142
GCTCGCCC | -0.00337
ATGGTTCA | -0.0973
CTAGCATA | -0.0461
GATAACTA | 0.143
AACCCGTA | 0.171
CTGAGCGC | -0.176
AAGGAGTC | -0.166
GCTGCGAA | -0.104
CGACACAA | -0.129
ACACAGCC | 0.0235
GGTTCTTA | -0.059
AGATCACT | -0.0154
CAGATAGC | -0.202
GGCCGGGA | 0.336
TACGTCTA | -0.271
AGGTCGTC | -0.0954
AATCACAT | 0.0324
AAGTACTT | -0.0508
GCCTCGGA | 0.331
ACACACAT | -0.133

Sequence | PBM E-score
GACTCTCA | -0.0761
CAGTTGAG | -0.225
ATACTCAG | -0.00136
CCATGATA | -0.132
AGAGACCT | -0.0963
ACATAAGC | -0.0155
GTGCACCA | -0.15
CATCTAGA | -0.209
TGTTAACA | -0.0556
ACTTTTAG | -0.0277
GCTAGGAC | -0.0426
TCCCTCAA | -0.122
ACGTGTCG | -0.181
GATTCGGA | 0.299
ATGGTCGC | 0.0358
CATTGGCC | -0.146
GGATATAA | 0.382
CCTACCCA | -0.316
GATGGGAA | -0.247
CGCCCCGA | 0.365
AGGTTAAG | -0.241
CCCCAACA | -0.121
GCACAAAC | -0.00294
CCTGAAGG | -0.281
CGGTAACG | 0.301

Sequence | PBM E-score
GGCGAGCC | -0.00718
CGGCCTAA | 0.257
AGATGAAA | -0.154
CTAGCGAA | -0.245
CATCGATC | -0.0952
CAGACGCA | -0.116
AGAGTTCG | 0.0504
GTGACGTA | -0.0822
AGTTCCAG | -0.09
CGTAAGGA | -0.0439
ATCGATGA | -0.0523
CCTCTCCC | -0.239
ACCTACGA | -0.25
CCAGTCGC | 0.0863
AGTGCCGC | 0.088
CAGGCCTA | -0.163
CCTCAGAA | -0.308
CACTGATA | -0.348
CAACCATG | -0.0771
AGCTTGAG | -0.0792
CCGCGGCA | 0.273
GTGGCTCA | -0.268
ATCTCCAG | 0.0473
CGCTTCCC | 0.111
TAGTAGCA | -0.123

Sequence | PBM E-score
AAAATCTG | -0.103
AAAGCACC | 0.0385
ATCTGTGA | -0.0202
CGTATGAG | -0.0106
GATGGGCA | -0.122
CAAGTCAA | -0.327
ACAGTCCA | -0.262
TAATGCTA | -0.0594
GGTTCCTA | -0.102
ACAAGAGG | -0.125
CCCTTATA | 0.0837
AAGGAAAG | 0.0672
CTCAAGTC | -0.144
AACGGGGC | 0.161
CTTGTGAA | -0.141
AACGTCAA | -0.179
AATATGGT | 0.0334
ATAGGACC | 0.109
AAACGCCA | 0.0524
CGTAGTCC | -0.0415
AAGGTGCA | -0.191
CTCATGCA | -0.111
TTATTAAA | -0.0798
GGCATGCC | 0.102
ATTTTCTC | 0.0203

Sequence | PBM E-score
AGTAGCCA | -0.307
AAAGACCT | -0.157
AGATTCGA | -0.117
GATTGATA | -0.178
CATGCTGC | -0.182
CTGATAGA | -0.112
ATAAGATG | -0.0565
CATGCTAG | -0.116
ATACCACC | 0.122
CATATGTC | -0.027
CTCTATCC | 0.0342
CTTGCTCC | 0.08
GTCGACTA | -0.0778
GGTTCTAC | -0.0237
ACTTGGGA | -0.0657
AATTCAAG | -0.113
GCTCAAAA | -0.0646
TCAAACCA | 0.0547
ACCAGCAG | -0.315
CACTCTAC | -0.106
AGCCAGGA | -0.178
ACATTCAT | -0.149
CGGTGGTC | 0.219
ATCGGGCA | 0.238
GGCTCACC | -0.0994

Sequence | PBM E-score
TGCAACAA | -0.119
GCGGAGCC | 0.224
GTATTAGA | 0.0422
ACCGATGC | 0.174
CAAGAGCG | -0.11
GTAGACAC | 0.107
CGGTGTGA | 0.19
GAATGCGC | 0.171
ATGACTAA | -0.169
CCTGGGGA | -0.353
ACAGGCAA | -0.148
CATAGGGC | -0.19
GACGGGTA | -0.0855
AGAGCGGC | 0.0913
ATATGATC | -0.0739
ATTGCCAA | -0.182
GTGAAGCA | -0.181
GCCAAAGA | -0.165
AATGTGGA | -0.0844
CATTCAGG | -0.187
CGTTTACA | -0.145
CCATCTAG | -0.139
GCTGCTAC | -0.212
GATACTGA | -0.0701
CCCATTAC | -0.0355

Sequence | PBM E-score
GGGCCGAC | 0.312
ACTCGGCG | 0.259
CTTGCTAA | -0.204
ACCGTATG | -0.0565
AGTGAAGG | -0.187
ACCAAGAT | -0.118
CCACCAAA | -0.217
AGCCCCAT | -0.108
CCATGGGA | -0.0745
CATGAGAA | -0.103
CCTGGGTA | -0.138
CTTCCGTC | 0.26
CCGGGGCA | 0.312
CCATTCAC | -0.0244
AAAACCCT | -0.0696
CATGCGAG | -0.062
GCTGAGCC | -0.119
AGAAAATG | -0.091
AGCTTCAG | -0.214
AAGAAAGG | -0.175
ACAGGGAT | -0.16
ATCGAAGC | -0.146
